These results are taken from the supplement of paper PMC8183993.

Several values for one entry are separate records, joined by “and”; a condition that tells them apart may be missing. Equal values may be shown once. Where a name gives a salt, the structure may show the parent alone. ± gives the standard deviation of the averaged measurements. In all, about 3,100 compounds were measured (“mean cytoplasmic OPP incorporation (global translation) relative to DMSO”: median about 100, lowest 2% from about 56 on). This is one part of the list.

The assay deals with U2OS. In words: mean cytoplasmic OPP incorporation (global translation) relative to DMSO (% of DMSO); higher = more protein synthesis. Conditions: 10 µM; 24 h. On the procedure: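 Primary image-based screen in U2OS cells: compounds at 10 uM for 24 h, then a 1 h o-propargyl-puromycin (OPP) pulse, click labelling, and high-throughput microscopy. Mean cytoplasmic OPP intensity and nuclei count were normalised to DMSO wells within each plate (DMSO = 100) and averaged over triplicate plates.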
With `C[N+]12CCC(CC1)C(OC(=O)C(O)(c1ccccc1)c1ccccc1)C2` (centres undefined) [Clidinium bromide], the “mean cytoplasmic OPP incorporation” value turned out to be 105. Consider `C[C@@]12N[C@@H](Cc3ccccc31)c1ccccc12` [(-)-MK 801 maleate], for which the “mean cytoplasmic OPP incorporation” value was 108. As for `C[C@@]12N[C@@H](Cc3ccccc31)c1ccccc12` [(-)-MK 801 hydrogen maleate], the “mean cytoplasmic OPP incorporation” value turned out to be 99.

Regarding `O=C1C(=O)c2ccccc2-c2ccccc21` [9,10-Phenanthrenequinone], the “mean cytoplasmic OPP incorporation” value was determined as 87.7. For the molecule `CC(=O)OCC1=C(C(=O)O)N2C(=O)[C@@H](N)[C@H]2SC1` [Cephalosporanic acid, 7-amino], the “mean cytoplasmic OPP incorporation” value came to 106.

On to `CC(=O)OCC1=C(C(=O)O)N2C(=O)[C@@H](N)[C@H]2SC1` [7-Aminocephalosporanic acid], for which the “mean cytoplasmic OPP incorporation” value was determined as 102. With `CO[C@]12C[C@@H](COC(=O)c3cncc(Br)c3)CN(C)[C@@H]1Cc1cn(C)c3cccc2c13` [Nicergoline] the figure was 103 ± 3.5; with `Cc1cccc([C@H](C)c2c[nH]cn2)c1C` [Dexmedetomidine HCl (Precedex)], 93.7.

Consider `CC1(C(=O)O)C2CCC(O2)C1(C)C(=O)O` (centres undefined) [Cantharidic acid], for which the “mean cytoplasmic OPP incorporation” value stood at 110. As for `CCCN(CCC)[C@@H]1CCc2c(OC)cccc2[C@@H]1C` [(+)-UH 232 maleate], the figure is 102.

`CC(C)(C)NCC(O)c1ccccc1Cl` (centres undefined) [Tulobuterol]: the “mean cytoplasmic OPP incorporation” value came to 99.8. Take `C[C@]12Cc3c[nH]nc3C[C@@H]1CC[C@@H]1[C@@H]2CC[C@@]2(C)[C@H]1CC[C@]2(C)O` [Stanozolol]: the “mean cytoplasmic OPP incorporation” value amounted to 99. Turning to `Cc1nnc2ccc(-c3cccc(C(F)(F)F)c3)nn12`, the “mean cytoplasmic OPP incorporation” value worked out at 95.7. In the case of `C#C[C@]1(O)C=C[C@H]2[C@@H]3CCC4=CC(=O)CC[C@@H]4[C@H]3CC[C@@]21CC` [Gestodene], the “mean cytoplasmic OPP incorporation” value worked out at 92.9. Consider `CCNC1(c2cccs2)CCCCC1=O` (centres undefined) [Tiletamine hydrochloride], for which the “mean cytoplasmic OPP incorporation” value turned out to be 102. On to `C[C@@H]1CC[C@H]2[C@@H](C)C(=O)O[C@@H]3O[C@@]4(C)CC[C@@H]1[C@]32OO4` [Artemisinin], for which the “mean cytoplasmic OPP incorporation” value is 92.8 ± 2.5. `CCC1(c2cccc(O)c2)CCCCN(C)C1` (centres undefined) [Meptazinol hydrochloride]: the “mean cytoplasmic OPP incorporation” value came to 116.

On to `O=C1Nc2cc(Cl)c(Cl)cc2N2CCNCC12` (centres undefined), for which the “mean cytoplasmic OPP incorporation” value amounted to 104. In the case of `COc1ccc(C(=O)O[C@H]2CC[C@@]3(C)[C@@H]4CC[C@H]5[C@]6(O)C[C@H](O)[C@@]7(O)[C@@H](CN8C[C@@H](C)CC[C@H]8[C@@]7(C)O)[C@]6(O)C[C@@]53O[C@]24O)cc1OC` [Veratridine], the “mean cytoplasmic OPP incorporation” value was 108. For `CC(C)(C)NCC(O)COc1cccc2[nH]c(C#N)cc12` (centres undefined) [Cyanopindolol hemifumarate], the “mean cytoplasmic OPP incorporation” value worked out at 105. Turning to `COc1cc([C@@H]2c3cc4c(cc3[C@H](O)[C@H]3COC(=O)[C@H]23)OCO4)cc(OC)c1OC` [Podophyllotoxin], the “mean cytoplasmic OPP incorporation” value came to 84.1. Regarding `NCCc1c[nH]c2ccc(O)cc12` [Serotonin hydrochloride], the “mean cytoplasmic OPP incorporation” value stood at 101. Consider `NCCc1c[nH]c2ccc(O)cc12` [Serotonin], for which the “mean cytoplasmic OPP incorporation” value amounted to 96.8. Regarding `CCN(C(C)=O)c1cccc(-c2ccnc3c(C#N)cnn23)c1` [Zaleplon], the “mean cytoplasmic OPP incorporation” value came out at 88.4. For the molecule `CCC(COC(=O)c1cc(OC)c(OC)c(OC)c1)(c1ccccc1)N(C)C` (centres undefined) [Trimebutine], the “mean cytoplasmic OPP incorporation” value is 105. Turning to `C/C=C(\C)C(=O)N[C@@H](c1ccccc1)[C@@H](O)C(=O)O[C@H]1C[C@@]2(O)[C@@H](OC(=O)c3ccccc3)[C@@H]3[C@]4(OC(C)=O)CO[C@@H]4C[C@H](O)[C@@]3(C)C(=O)[C@H](OC(C)=O)C(=C1C)C2(C)C` [Cephalomannine], the “mean cytoplasmic OPP incorporation” value came out at 108. As for `COc1ccc(C[C@H]2NC[C@H](O)[C@H]2OC(C)=O)cc1` [Anisomycin], the figure is 78.2 ± 59; as for `Cc1[nH]c2ccc(Cl)cc2c1C1=CCNCC1`, 97.5.

For `Cc1cc(SCc2sc(-c3ccc(C(F)(F)F)c(F)c3)nc2C)ccc1OCC(=O)O`, the “mean cytoplasmic OPP incorporation” value came out at 101. As for `NC(=O)C[S+]([O-])C(c1ccccc1)c1ccccc1` (centres undefined) [Modafinil], the figure is 97.3. For `CC(C)(C)[C@]1(O)CC2OC(=O)CC23C(=O)OC2OC(=O)[C@H](O)C231` (some centres undefined) [Bilobalide], the “mean cytoplasmic OPP incorporation” value is 108. As for `CC[C@@H]1/C=C/C=C/C[C@H](C)[C@H](O)[C@](C)(O)C(=O)[C@H](C)[C@@H](O)[C@H](C)C(=O)[C@H](C)[C@@H](O)[C@H](C)/C=C/C(=O)O[C@H]2[C@@H](C)[C@@H](CC1)O[C@@]1(CC[C@@H](C)[C@@H](C[C@H](C)O)O1)[C@@H]2C` [Oligomycin A], the “mean cytoplasmic OPP incorporation” value was determined as 109.

For `CN1CCN(C(=O)OC2c3nccnc3C(=O)N2c2ccc(Cl)cn2)CC1` (centres undefined) [Zopiclone], the “mean cytoplasmic OPP incorporation” value stood at 96.6.

As for `CN[C@@H]1C[C@H]2O[C@@](C)([C@@H]1OC)n1c3ccccc3c3c4c(c5c6ccccc6n2c5c31)C(=O)NC4` [Staurosporine], the “mean cytoplasmic OPP incorporation” value is 123. `Clc1ccc(C(OCCN2CCCCC2)c2ccccc2)cc1` (centres undefined) [Cloperastine hydrochloride]: the “mean cytoplasmic OPP incorporation” value was 111. With `O=C(O[C@H]1C[N+]2(CCCOc3ccccc3)CCC1CC2)C(O)(c1cccs1)c1cccs1` [Aclidinium Bromide] the figure was 97.3; with `Clc1ccccc1C(c1ccccc1)(c1ccccc1)n1cccn1`, 105; with `CC(=O)NC1CCSC1=O` (racemic) [N-Acetyl-DL-homocysteine Thiolactone], 103. Turning to `CC(Cc1ccccc1)NCCC(c1ccccc1)c1ccccc1` (centres undefined) [Prenylamine lactate], the “mean cytoplasmic OPP incorporation” value is 107. As for `C[C@]12CC[C@H](O)C[C@H]1CC[C@@H]1[C@@H]2C[C@@H](O)[C@]2(C)[C@@H](C3=CC(=O)OC3)CC[C@]12O` [Digoxigenin], the figure is 32; as for `Cc1cccc(C)c1NC1=NCCCS1` [Xylazine], 102.

With `COc1cc2c(cc1OC)C1CC(=O)C(CC(C)C)CN1CC2` (centres undefined) [Tetrabenazine], the “mean cytoplasmic OPP incorporation” value came out at 102. As for `CCCCC/C=C\C/C=C\C/C=C\C/C=C\CCCC(=O)Nc1ccc(O)cc1`, the “mean cytoplasmic OPP incorporation” value came to 107. Turning to `CCNC(=O)[C@H]1O[C@@H](n2cnc3c(N)ncnc32)[C@H](O)[C@@H]1O`, the “mean cytoplasmic OPP incorporation” value came to 100. For the molecule `C[C@H](N)Cn1ccc2cc(F)c(Cl)cc21` [Ro 60-0175 fumarate], the “mean cytoplasmic OPP incorporation” value was 94.4. `O=C(Oc1ccc([N+](=O)[O-])cc1)N1CCC(C(O)(c2ccc3c(c2)OCO3)c2ccc3c(c2)OCO3)CC1`: the “mean cytoplasmic OPP incorporation” value was 105. Take `CN1C(=O)COc2c(C(=O)NC3CN4CCC3CC4)cc(Cl)cc21` (centres undefined): the “mean cytoplasmic OPP incorporation” value amounted to 99.2. Consider `NC(=O)CN1CCCC1=O` [Piracetam], for which the “mean cytoplasmic OPP incorporation” value worked out at 103. Consider `COc1cc2c(cc1OC)C(C)NCC2` (centres undefined), for which the “mean cytoplasmic OPP incorporation” value was found to be 98.9. Regarding `NCc1cc(O)no1` [Muscimol], the “mean cytoplasmic OPP incorporation” value was determined as 98.6.

As for `Oc1ccc2c3c1O[C@H]1c4oc5ccccc5c4C[C@@]4(O)[C@@H](C2)N(CC2CC2)CC[C@]314` [Naltriben mesylate], the “mean cytoplasmic OPP incorporation” value came out at 107.

Consider `O=P1(NCCCl)OCCCN1CCCl` (centres undefined) [Ifosfamide], for which the “mean cytoplasmic OPP incorporation” value came to 105.

As for `COc1ccc(C(=O)c2c(C)n(CCN3CCOCC3)c3cc(I)ccc23)cc1`, the “mean cytoplasmic OPP incorporation” value was 105. With `CCCCC/C=C\C/C=C\C/C=C\C/C=C\CCCC(=O)NCCO` [Anandamide] the figure was 97.9; with `CC(C)c1c(CN(C)C(C)Cc2ccccc2)n(C)n(-c2ccccc2)c1=O` (centres undefined) [Famprofazone], 104; with `C=C(C)[C@@H]1[C@H]2OC(=O)[C@@H]1[C@]1(O)C[C@H]3O[C@]34C(=O)O[C@H]2[C@]14C` [Picrotoxinin], 104. As for `CC(=O)OCC(=O)[C@H]1CC[C@H]2[C@@H]3CC[C@H]4C[C@H](O)CC[C@]4(C)[C@H]3C(=O)C[C@]12C` [Alfadolone acetate], the figure is 107.

Consider `N#CC(C#N)=Cc1ccc(O)cc1` [Tyrphostin 8], for which the “mean cytoplasmic OPP incorporation” value came to 98.5. As for `CC(C)(Cc1c[nH]c2ccc(Cl)cc12)NCCOc1ccccc1OCC1CC1`, the “mean cytoplasmic OPP incorporation” value was found to be 55.1. As for `Cc1ccc(C[N+](C)(C)C)o1` [5-Methylfurmethiodide], the figure is 94.1; as for `CCCN(CCC)C1CCc2cccc(O)c2C1` (centres undefined) [8-Hydroxy-DPAT hydrobromide], 104; as for `c1ccc2c(c1)[I+]c1ccccc1-2` [Diphenyleneiodonium chloride], 74. Take `CNc1ccc2oc(C[C@H]3O[C@@]4(CC[C@H]3C)O[C@H]([C@H](C)C(=O)c3ccc[nH]3)[C@H](C)C[C@H]4C)nc2c1C(=O)O`: the “mean cytoplasmic OPP incorporation” value was 98.9 and 94.4. Consider `O=C(O)c1ccc2[nH]cc(CCCCN3CC=C(c4ccccc4)CC3)c2c1` [Carmoxirole hydrochloride], for which the “mean cytoplasmic OPP incorporation” value stood at 104.

In the case of `CCN1C[C@]2(COC(=O)c3ccccc3N3C(=O)C[C@H](C)C3=O)CC[C@H](OC)[C@@]34[C@@H]5C[C@H]6[C@H](OC)[C@@H]5[C@](O)(C[C@@H]6OC)[C@](O)([C@@H](OC)[C@H]23)[C@@H]14` [Methyllycaconitine citrate], the “mean cytoplasmic OPP incorporation” value amounted to 102. Turning to `CCN1C[C@]2(COC)[C@H](O)C[C@H](OC)[C@@]34[C@@H]5C[C@@]6(O)[C@H](OC(=O)c7ccccc7)[C@@H]5[C@@](OC(C)=O)([C@@H]([C@H](OC)[C@H]23)[C@@H]14)[C@@H](O)[C@@H]6OC` [Aconitine], the “mean cytoplasmic OPP incorporation” value is 102. Consider `CN(C)C(=O)Oc1cc(OC(=O)N(C)C)cc(C(O)CNC(C)(C)C)c1` (centres undefined) [Bambuterol hydrochloride], for which the “mean cytoplasmic OPP incorporation” value stood at 105. As for `C[N+]1(C)[C@@H]2C[C@@H](OC(=O)[C@H](CO)c3ccccc3)C[C@H]1[C@@H]1O[C@@H]12` [Methscopolamine (Pamine)], the figure is 99.5; as for `C[C@]12CC[C@H](O)C[C@@H]1CC[C@@H]1[C@@H]2CC[C@]2(C)C(=O)CC[C@@H]12` [Epiandrosterone], 90.1. On to `C[C@]12CC[C@H](O)C[C@@H]1CC[C@@H]1[C@@H]2CC[C@]2(C)C(=O)CC[C@@H]12`, for which the “mean cytoplasmic OPP incorporation” value came to 95.2. For the molecule `Cn1cc(C(=O)C(=O)N[C@H]2CN3CCC2CC3)c2ccccc21`, the “mean cytoplasmic OPP incorporation” value was determined as 99.4. Consider `CCn1cc(C(=O)O)c(=O)c2cc3c(cc21)OCO3` [Oxolinic acid], for which the “mean cytoplasmic OPP incorporation” value amounted to 95.6. For the molecule `N[C@@]1(C(=O)O)CC[C@@H](C(=O)O)C1`, the “mean cytoplasmic OPP incorporation” value came to 98.4. In the case of `C=C(C)[C@H]1O[C@H]2CC[C@@]3(C)[C@@](O)(CC[C@H]4[C@@H]5OC(C)(C)[C@H]6C[C@@H]7C(=C)Cc8c(Cl)cc9[nH]c(c5c9c8[C@@]76O)[C@@]43C)[C@@]23O[C@H]3[C@H]1O` [Penitrem A], the “mean cytoplasmic OPP incorporation” value worked out at 97.4 ± 4.
